The list shows a part of the results.
Tests used:
Test in all cases: glycan array binding signal (z-score within array); higher = stronger binding
Details in all cases: glycan notation: IUPAC condensed, linker removed
[1] = target: Fuc(a1-2)Gal6S(b1-3)GlcNAc6S
How it was run: (§1)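 Negative Z-scores can be read as non-binding. The Z-score is calculated within each array and then averaged across arrays of one protein sequence at different concentrations or buffers and across linkers. Arrays, 3228 in all, were curated from the Consortium for Functional Glycomics database and kept only where the protein sequence was available.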

Fuc(a1-2)Gal6S(b1-4)Glc = target: Fuc(a1-2)Gal6S(b1-4)Glc
How it was run: as §1

[2] = target: Fuc(a1-2)Gal6S(b1-4)Glc6S
How it was run: as §1

Fuc(a1-2)[Gal(a1-3)]Gal = target: Fuc(a1-2)[Gal(a1-3)]Gal
How it was run: as §1

[3] = target: Fuc(a1-2)[Gal(a1-3)]Gal(b1-3)GalNAc
How it was run: as §1

[4] = target: Fuc(a1-2)[Gal(a1-3)]Gal(b1-3)GalNAc(b1-3)Gal(a1-4)Gal(b1-4)Glc
How it was run: as §1

[5] = target: Fuc(a1-2)[Gal(a1-3)]Gal(b1-3)GlcNAc
How it was run: as §1

[6] = target: Fuc(a1-2)[Gal(a1-3)]Gal(b1-3)GlcNAc(b1-2)Man(a1-3)[Fuc(a1-2)[Gal(a1-3)]Gal(b1-3)GlcNAc(b1-2)Man(a1-6)]Man(b1-4)GlcNAc(b1-4)GlcNAc
How it was run: as §1

[7] = target: Fuc(a1-2)[Gal(a1-3)]Gal(b1-3)GlcNAc(b1-2)Man(a1-3)[Fuc(a1-2)[Gal(a1-3)]Gal(b1-3)GlcNAc(b1-2)Man(a1-6)]Man(b1-4)GlcNAc(b1-4)[Fuc(a1-6)]GlcNAc
How it was run: as §1

[8] = target: Fuc(a1-2)[Gal(a1-3)]Gal(b1-3)GlcNAc(b1-3)GalNAc
How it was run: as §1

[9] = target: Fuc(a1-2)[Gal(a1-3)]Gal(b1-3)GlcNAc(b1-6)GalNAc
How it was run: as §1

[10] = target: Fuc(a1-2)[Gal(a1-3)]Gal(b1-4)Glc
How it was run: as §1

[11] = target: Fuc(a1-2)[Gal(a1-3)]Gal(b1-4)GlcNAc
How it was run: as §1

[12] = target: Fuc(a1-2)[Gal(a1-3)]Gal(b1-4)GlcNAc(b1-2)Man
How it was run: as §1

[13] = target: Fuc(a1-2)[Gal(a1-3)]Gal(b1-4)GlcNAc(b1-2)Man(a1-3)[Fuc(a1-2)[Gal(a1-3)]Gal(b1-4)GlcNAc(b1-2)Man(a1-6)]Man(b1-4)GlcNAc(b1-4)GlcNAc
How it was run: as §1

[14] = target: Fuc(a1-2)[Gal(a1-3)]Gal(b1-4)GlcNAc(b1-2)Man(a1-3)[Fuc(a1-2)[Gal(a1-3)]Gal(b1-4)GlcNAc(b1-2)Man(a1-6)]Man(b1-4)GlcNAc(b1-4)[Fuc(a1-6)]GlcNAc
How it was run: as §1

[15] = target: Fuc(a1-2)[Gal(a1-3)]Gal(b1-4)GlcNAc(b1-3)GalNAc
How it was run: as §1

[16] = target: Fuc(a1-2)[Gal(a1-3)]Gal(b1-4)GlcNAc(b1-3)[Fuc(a1-2)[Gal(a1-3)]Gal(b1-4)GlcNAc(b1-6)]GalNAc
How it was run: as §1

[17] = target: Fuc(a1-2)[Gal(a1-3)]Gal(b1-4)GlcNAc(b1-6)GalNAc
How it was run: as §1

[18] = target: Fuc(a1-2)[Gal(a1-3)]Gal(b1-4)[Fuc(a1-3)]Glc
How it was run: as §1

[19] = target: Fuc(a1-2)[Gal(a1-3)]Gal(b1-4)[Fuc(a1-3)]GlcNAc
How it was run: as §1

[20] = target: Fuc(a1-2)[Gal(a1-3)]Gal(b1-4)[Fuc(a1-3)]GlcNAc(b1-3)GalNAc
How it was run: as §1

[21] = target: Fuc(a1-2)[Gal(a1-4)]Gal(b1-4)GlcNAc
How it was run: as §1

[22] = target: Fuc(a1-2)[GalNAc(a1-3)]Gal
How it was run: as §1

[23] = target: Fuc(a1-2)[GalNAc(a1-3)]Gal(b1-3)GalNAc(a1-3)[Fuc(a1-2)]Gal(b1-4)GlcNAc
How it was run: as §1

[24] = target: Fuc(a1-2)[GalNAc(a1-3)]Gal(b1-3)GalNAc(b1-3)Gal(a1-4)Gal(b1-4)Glc
How it was run: as §1

[25] = target: Fuc(a1-2)[GalNAc(a1-3)]Gal(b1-3)GlcNAc
How it was run: as §1

[26] = target: Fuc(a1-2)[GalNAc(a1-3)]Gal(b1-3)GlcNAc(b1-2)Man(a1-3)[Fuc(a1-2)[GalNAc(a1-3)]Gal(b1-3)GlcNAc(b1-2)Man(a1-6)]Man(b1-4)GlcNAc(b1-4)GlcNAc
How it was run: as §1

[27] = target: Fuc(a1-2)[GalNAc(a1-3)]Gal(b1-3)GlcNAc(b1-2)Man(a1-3)[Fuc(a1-2)[GalNAc(a1-3)]Gal(b1-3)GlcNAc(b1-2)Man(a1-6)]Man(b1-4)GlcNAc(b1-4)[Fuc(a1-6)]GlcNAc
How it was run: as §1

[28] = target: Fuc(a1-2)[GalNAc(a1-3)]Gal(b1-3)GlcNAc(b1-3)GalNAc
How it was run: as §1

[29] = target: Fuc(a1-2)[GalNAc(a1-3)]Gal(b1-3)GlcNAc(b1-6)GalNAc
How it was run: as §1

[30] = target: Fuc(a1-2)[GalNAc(a1-3)]Gal(b1-4)Glc
How it was run: as §1

[31] = target: Fuc(a1-2)[GalNAc(a1-3)]Gal(b1-4)GlcNAc
How it was run: as §1

[32] = target: Fuc(a1-2)[GalNAc(a1-3)]Gal(b1-4)GlcNAc(b1-2)Man
How it was run: as §1

[33] = target: Fuc(a1-2)[GalNAc(a1-3)]Gal(b1-4)GlcNAc(b1-2)Man(a1-3)[Fuc(a1-2)[GalNAc(a1-3)]Gal(b1-4)GlcNAc(b1-2)Man(a1-6)]Man(b1-4)GlcNAc(b1-4)GlcNAc
How it was run: as §1

[34] = target: Fuc(a1-2)[GalNAc(a1-3)]Gal(b1-4)GlcNAc(b1-2)Man(a1-3)[Fuc(a1-2)[GalNAc(a1-3)]Gal(b1-4)GlcNAc(b1-2)Man(a1-6)]Man(b1-4)GlcNAc(b1-4)[Fuc(a1-6)]GlcNAc
How it was run: as §1

[35] = target: Fuc(a1-2)[GalNAc(a1-3)]Gal(b1-4)GlcNAc(b1-3)Gal(b1-4)GlcNAc
How it was run: as §1

[36] = target: Fuc(a1-2)[GalNAc(a1-3)]Gal(b1-4)GlcNAc(b1-3)Gal(b1-4)GlcNAc(b1-3)Gal(b1-4)GlcNAc
How it was run: as §1

[37] = target: Fuc(a1-2)[GalNAc(a1-3)]Gal(b1-4)GlcNAc(b1-3)GalNAc
How it was run: as §1

[38] = target: Fuc(a1-2)[GalNAc(a1-3)]Gal(b1-4)GlcNAc(b1-3)[Fuc(a1-2)[GalNAc(a1-3)]Gal(b1-4)GlcNAc(b1-6)]GalNAc
How it was run: as §1

[39] = target: Fuc(a1-2)[GalNAc(a1-3)]Gal(b1-4)GlcNAc(b1-6)GalNAc
How it was run: as §1

[40] = target: Fuc(a1-2)[GalNAc(a1-3)]Gal(b1-4)[Fuc(a1-3)]GlcNAc
How it was run: as §1

[41] = target: Fuc(a1-2)[GalNAc(a1-3)]Gal(b1-4)[Fuc(a1-3)]GlcNAc(b1-3)GalNAc
How it was run: as §1

[42] = target: Fuc(a1-2)[GalNAc(a1-4)]Gal(b1-4)GlcNAc
How it was run: as §1

[43] = target: Fuc(a1-2)[GalNAc(b1-3)]Gal
How it was run: as §1

B1: PX9961C-bth-497-22-497 (Bacteroides thetaiotaomicron) (protein)
chain: DWLDLNTTSSVETGQAIVTLDDAQIALNGIYRLASGHSYYGDNYWYYGDCRAADVQARITKGDGKRVSPYYEYNVLASDNLNIVLPWNTVYKVIRQTNNLIQKIESGSIQSSDTKELNRIKSEALVMRGLSLFNLTRLFGMPYTNDKGASLGVPIETSPSDPTHKPSRSTVAQCYEQVVSDMSNALSGLRQETSNGYINYWAAQALLSRVYLNMGEYQKAYDAATDVIKNNGGRYQLYSYEEYPNVWGQDFQSESLFELYITLSEPSGGTGGEGAPMVYANEATVDWNNLILSEDFLNLLNEDPKDVRHCLTKESVIENNTGLPAAAMHEKVYLAKFPGKTGDDPKTNNICIIRLSEVYLNAAEAGLKKGTDIEEAQGYLNDIISRRTTDTSQQVSTETFTLDRILKERRKELVGEGEVFYDYLRNGLAIERKGSWHLETLKASNAQKIEATDLRIALPIPQSEIDANPNIQQNPR
[1]
  glycan array binding signal (z-score): 0.538
Fuc(a1-2)Gal6S(b1-4)Glc
  glycan array binding signal (z-score): -0.078
[2]
  glycan array binding signal (z-score): 0.28
Fuc(a1-2)[Gal(a1-3)]Gal
  glycan array binding signal (z-score): -0.571
[3]
  glycan array binding signal (z-score): -0.3
[4]
  glycan array binding signal (z-score): 0.019
[5]
  glycan array binding signal (z-score): 0.007
[6]
  glycan array binding signal (z-score): 1.08
[7]
  glycan array binding signal (z-score): -0.408
[8]
  glycan array binding signal (z-score): -0.02
[9]
  glycan array binding signal (z-score): 0.553
[10]
  glycan array binding signal (z-score): -0.317
[11]
  glycan array binding signal (z-score): -0.287
[12]
  glycan array binding signal (z-score): -0.333
[13]
  glycan array binding signal (z-score): 0.26
[14]
  glycan array binding signal (z-score): -0.096
[15]
  glycan array binding signal (z-score): -0.704
[16]
  glycan array binding signal (z-score): -0.459
[17]
  glycan array binding signal (z-score): 0.219
[18]
  glycan array binding signal (z-score): 0.035
[19]
  glycan array binding signal (z-score): -0.229
[20]
  glycan array binding signal (z-score): -0.284
[21]
  glycan array binding signal (z-score): -0.405
[22]
  glycan array binding signal (z-score): -0.11
[23]
  glycan array binding signal (z-score): -0.244
[24]
  glycan array binding signal (z-score): -0.32
[25]
  glycan array binding signal (z-score): -0.776
[26]
  glycan array binding signal (z-score): -0.251
[27]
  glycan array binding signal (z-score): -0.189
[28]
  glycan array binding signal (z-score): -0.541
[29]
  glycan array binding signal (z-score): -0.456
[30]
  glycan array binding signal (z-score): -0.509
[31]
  glycan array binding signal (z-score): -0.2
[32]
  glycan array binding signal (z-score): -0.384
[33]
  glycan array binding signal (z-score): 0.689
[34]
  glycan array binding signal (z-score): 0.399
[35]
  glycan array binding signal (z-score): 0.192
[36]
  glycan array binding signal (z-score): 0.32
[37]
  glycan array binding signal (z-score): -0.094
[38]
  glycan array binding signal (z-score): -0.164
[39]
  glycan array binding signal (z-score): -0.325
[40]
  glycan array binding signal (z-score): -0.109
[41]
  glycan array binding signal (z-score): -0.32
[42]
  glycan array binding signal (z-score): -0.157
[43]
  glycan array binding signal (z-score): 0.454

Source: the supplement of paper PMC8728848
